In patent US10357455B2, “Pharmaceutical compositions of amorphous dispersions of drugs and lipophilic microphase-forming materials” (Bend Research, Inc., priority 2002, dated 2019):

Assay: Partition coefficient of Drug 1 in lipophilic microphase-forming materials (NMR, PBS)
Settings: for Highly-Mobile Drug 1 Concentration: deuterated PBS, overnight 37° C.

CCOC(=O)N1c2ccc(C(F)(F)F)cc2[C@@H](N(Cc2cc(C(F)(F)F)cc(C(F)(F)F)c2)C(=O)OC)C[C@H]1CC [Drug 1, [2R,4S] 4-[(3,5-bis-trifluoromethyl-benzyl)-methoxycarbonyl-amino]-2-ethyl-6-trifluoromethyl-3,4-dihydro-2H-quinoline-1-carboxylic acid ethyl ester]
Highly-Mobile Drug 1 Concentration (crystalline Drug 1, Cremophore/Capmul 0.047 wt %): 9 µg/mL | Highly-Mobile Drug 1 Concentration (crystalline Drug 1, Cremophore/Capmul 0.089 wt %): 23 µg/mL | Highly-Mobile Drug 1 Concentration (crystalline Drug 1, Cremophore/Capmul 0.164 wt %): 53 µg/mL | [Drug]free (free drug concentration of crystalline Drug 1): 0.010 µg/mL
